Like-named read-outs stand apart in the source and are kept apart here. Not every detail of the peptide structures is certain; ends, links or a residue may be inferred. For at least one compound, name, drawing or mass did not settle the structure. Non-standard residues stand in square brackets, D forms with d. Residues, ends and D or L forms follow the SMILES beside them. *: point of attachment. X3 = CNC(=N)NCCC[C@H](NC(=O)C(CC(C)C)C(=O)NCN*)C(=O)N[C@@H](Cc1c[nH]c2ccccc12)C(N)=O; X1 = CCCCCCCCCCCC(=O)NCCOCCOCCOCCOCCOCCSC1CC(=O)N(CCCC(=O)*)C1=O; dPhe(2,4-Cl2) = N[C@H](Cc1ccc(Cl)cc1Cl)C(=O)O; PEG8 = NCCOCCOCCOCCOCCOCCOCCOCCOCCC(=O)O; Pro(4,4-F2) = O=C(O)[C@@H]1CC(F)(F)CN1; dAla(2-furyl) = N[C@H](Cc1ccco1)C(=O)O; Arg(Me) = CNC(=N)NCCC[C@H](N)C(=O)O; Val(3-OH) = CC(C)(O)[C@H](N)C(=O)O; Palmitoyl = CCCCCCCCCCCCCCCC(=O)*; Hyp = O=C(O)[C@@H]1C[C@@H](O)CN1; AllylGly = C=CC[C@H](N)C(=O)O; PEG4 = NCCOCCOCCOCCOCCC(=O)O; Lauroyl = CCCCCCCCCCCC(=O)*; Nonanoyl = CCCCCCCCC(=O)*; dPip = O=C(O)[C@H]1CCCCN1; Ac6c = NC1(C(=O)O)CCCCC1; Aze = O=C(O)[C@@H]1CCN1; Ac4c = NC1(C(=O)O)CCC1; Hexanoyl = CCCCCC(=O)*; azaGly = NNC(=O)O
Target: T1, human kiss1 receptor (GPR54) (Homo sapiens, UniProt Q969F8)
T1 construct: host or cells: NFAT-bla CHO-K1 cells (Chinese hamster ovary), purchased recombinant cell line
Assay: Kiss1 receptor (GPR54) binding activity of agonists, FRET detection in NFAT-bla CHO-K1 cells
Format: cell-based

[1] = GPR54, measured according to the method of effect Embodiment 1, preliminary data, read-out: Preliminary measurement data (GPR54) EC50
[2] = NFAT-bla CHO-K1 cells that express human kiss1 receptor (GPR54), FRET, cells cultured with compound for 4 hours, read-out: GPR54 EC50/nM

T1 sequence (Q969F8 whole entry): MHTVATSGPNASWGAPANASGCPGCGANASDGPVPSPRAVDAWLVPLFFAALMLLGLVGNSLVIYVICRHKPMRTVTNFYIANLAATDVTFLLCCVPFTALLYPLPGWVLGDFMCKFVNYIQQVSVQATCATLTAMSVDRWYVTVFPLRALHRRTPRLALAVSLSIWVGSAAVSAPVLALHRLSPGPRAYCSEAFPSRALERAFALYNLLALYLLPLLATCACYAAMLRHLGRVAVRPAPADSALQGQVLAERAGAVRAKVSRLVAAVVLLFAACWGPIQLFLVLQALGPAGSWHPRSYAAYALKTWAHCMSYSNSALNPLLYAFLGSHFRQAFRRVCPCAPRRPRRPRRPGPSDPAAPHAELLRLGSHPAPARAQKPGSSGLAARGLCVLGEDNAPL

| Structure (SMILES) | EC50 [1] | EC50 [2] | EC50 (human kiss1 receptor (GPR54), NFAT-bla CHO-K1 cells, FRET, preliminary data, method of effect Embodiment 1, read-out: Preliminary measurement data (GPR54) EC50) |
| --- | --- | --- | --- |
| CCCCCCCCCCCCCCCC(=O)NCCOCCOCCOCCOCCOCCOCCOCCOCCC(=O)N[C@H](Cc1ccco1)C(=O)N1CC(F)(F)C[C@H]1C(=O)N[C@@H](CC(N)=O)C(=O)N[C@H](C(=O)N[C@@H](Cc1ccccc1)C(=O)NC1(C(=O)N[C@@H](CC(C)C)C(=O)N[C@@H](CCCNC(=N)NC)C(=O)N[C@@H](Cc2c[nH]c3ccccc23)C(N)=O)CCCCC1)[C@@H](C)O [YA-267, Palm-PEG8-D-3Fua-Pro(diF)-Asn-Thr-Phe-A6c-Leu-Arg(Me)-Trp-NH2] ({Palmitoyl-PEG8}-[dAla(2-furyl)][Pro(4,4-F2)]NTF[Ac6c]L[Arg(Me)]W-NH2) | 0.03 nM | 0.03 nM |  |
| CCCCCC(=O)N[C@H](Cc1ccc(O)cc1)C(=O)N1C[C@H](O)C[C@H]1C(=O)N[C@@H](CC(N)=O)C(=O)N[C@H](C(=O)N[C@@H](Cc1ccccc1)C(=O)NNC(=O)N[C@@H](CC(C)C)C(=O)N[C@@H](CCCNC(=N)NC)C(=O)N[C@@H](Cc1c[nH]c2ccccc12)C(N)=O)[C@@H](C)O [YA-294, Hexanoyl-D-Tyr-Hyp-Asn-Thr-Phe-azaGly-Leu-Arg(Me)-Trp-NH2] (Hexanoyl-[dY][Hyp]NTF[azaGly]L[Arg(Me)]W-NH2) | 0.039 nM | 0.038 nM |  |
| CCCCCCCCCCCCCCCC(=O)N[C@H](Cc1ccc(O)cc1)C(=O)N1C[C@H](O)C[C@H]1C(=O)N[C@@H](CC(N)=O)C(=O)N[C@H](C(=O)N[C@@H](Cc1ccccc1)C(=O)NNC(=O)N[C@@H](CC(C)C)C(=O)N[C@@H](CCCNC(=N)NC)C(=O)N[C@@H](Cc1c[nH]c2ccccc12)C(N)=O)[C@@H](C)O [YA-297, Palm-D-Tyr-Hyp-Asn-Thr-Phe-azaGly-Leu-Arg(Me)-Trp-NH2] (Palmitoyl-[dY][Hyp]NTF[azaGly]L[Arg(Me)]W-NH2) | 0.014 nM | 0.014 nM |  |
| CCCCCCCCCCCC(=O)NCCOCCOCCOCCOCCOCCSC1CC(=O)N(CCCC(=O)N[C@H](Cc2ccc(O)cc2)C(=O)N2C[C@H](O)C[C@H]2C(=O)N[C@@H](CC(N)=O)C(=O)N[C@H](C(=O)N[C@@H](Cc2ccccc2)C(=O)NNC(=O)N[C@@H](CC(C)C)C(=O)N[C@@H](CCCNC(=N)NC)C(=O)N[C@@H](Cc2c[nH]c3ccccc23)C(N)=O)[C@@H](C)O)C1=O (stereo partly drawn) [YA-325, Dodecanoy-(NH-PEG5-CH2CH2S)-(maleimide-butanoyl-)-(D-Tyr)-Hyp-Asn-Thr-Phe-azaG-Leu-Arg(Me)-Trp-NH2] (X1-[dY][Hyp]NTF[azaGly]L[Arg(Me)]W-NH2) | 0.017 nM | 0.017 nM |  |
| CNC(=N)NCCC[C@H](NC(=O)C(CC(C)C)C(=O)NCNC(=O)[C@H](Cc1ccccc1)NC(=O)[C@@H](NC(=O)[C@H](CC(N)=O)NC(=O)[C@H]1CCCCN1C(=O)[C@@H](Cc1ccc(Cl)cc1Cl)NC(C)=O)[C@@H](C)O)C(=O)N[C@@H](Cc1c[nH]c2ccccc12)C(N)=O (stereo partly drawn) [YA-332, Ac-(D-Phe(2,4-DiCl))-HoPro-Asn-Thr-Phe-ψ(NHCO)Gly-Leu-Arg(Me)-Trp-NH2] (Ac-[dPhe(2,4-Cl2)][dPip]NTF-X3) | 0.18 nM | 0.18 nM |  |
| CNC(=N)NCCC[C@H](NC(=O)C(CC(C)C)C(=O)NCNC(=O)[C@H](Cc1ccccc1)NC(=O)[C@@H](NC(=O)[C@H](CC(N)=O)NC(=O)[C@H]1CCCCN1C(=O)[C@@H](Cc1ccco1)NC(C)=O)[C@@H](C)O)C(=O)N[C@@H](Cc1c[nH]c2ccccc12)C(N)=O (stereo partly drawn) [YA-333, Ac-[3-(2-furyl)-D-Ala]-HoPro-Asn-Thr-Phe-ψ(NHCO) Gly-Leu-Arg(Me)-Trp-NH2] (Ac-[dAla(2-furyl)][dPip]NTF-X3) | 0.066 nM | 0.066 nM |  |
| CNC(=N)NCCC[C@H](NC(=O)C(CC(C)C)C(=O)NCNC(=O)[C@H](Cc1ccccc1)NC(=O)[C@@H](NC(=O)[C@H](CC(N)=O)NC(=O)[C@@H]1CC(F)(F)CN1C(=O)[C@@H](Cc1ccc(Cl)cc1Cl)NC(C)=O)[C@@H](C)O)C(=O)N[C@@H](Cc1c[nH]c2ccccc12)C(N)=O (stereo partly drawn) [YA-334, Ac-[D-Phe (2,4-DiCl)]-DiFluoroPro-Asn-Thr-Phe-Ψ (NHCO) Gly-Leu-Arg(Me)-Trp-NH2] (Ac-[dPhe(2,4-Cl2)][Pro(4,4-F2)]NTF-X3) | 0.084 nM | 0.084 nM |  |
| CNC(=N)NCCC[C@H](NC(=O)[C@H](CC(C)C)NC(=O)C1(NC(=O)[C@H](Cc2ccccc2)NC(=O)[C@@H](NC(=O)[C@H](CC(N)=O)NC(=O)[C@H]2CCCCN2C(=O)[C@@H](Cc2ccco2)NC(C)=O)[C@@H](C)O)CCCCC1)C(=O)N[C@@H](Cc1c[nH]c2ccccc12)C(N)=O [YA-336, Ac-(D-2Fua)-HomoPro-Asn-Thr-Phe-A6c-Leu-Arg(Me)-Trp-NH2] (Ac-[dAla(2-furyl)][dPip]NTF[Ac6c]L[Arg(Me)]W-NH2) |  | 2.48 nM | 2.48 nM |
| CCCCCCCCC(=O)NCCOCCOCCOCCOCCC(=O)N[C@H](Cc1ccc(O)cc1)C(=O)N1C[C@H](O)C[C@H]1C(=O)N[C@@H](CC(N)=O)C(=O)N[C@H](C(=O)N[C@@H](Cc1ccccc1)C(=O)N1CC[C@H]1C(=O)N[C@@H](CC(C)C)C(=O)N[C@@H](CCCNC(=N)NC)C(=O)N[C@@H](Cc1c[nH]c2ccccc12)C(N)=O)[C@@H](C)O [YA-338, Nonanoyl-PEG4-(D-Tyr)-Hyp-Asn-Thr-Phe-Aze-Leu-Arg(Me)-Trp-NH2] ({Nonanoyl-PEG4}-[dY][Hyp]NTF[Aze]L[Arg(Me)]W-NH2) | 0.057 nM | 0.057 nM |  |
| CCCCCCCCCCCC(=O)NCCOCCOCCOCCOCCC(=O)N[C@H](Cc1ccc(O)cc1)C(=O)N1C[C@H](O)C[C@H]1C(=O)N[C@@H](CC(N)=O)C(=O)N[C@H](C(=O)N[C@@H](Cc1ccccc1)C(=O)N[C@H](Cc1ccco1)C(=O)N[C@@H](CC(C)C)C(=O)N[C@@H](CCCNC(=N)NC)C(=O)N[C@@H](Cc1c[nH]c2ccccc12)C(N)=O)[C@@H](C)O [YA-339, Dodecanoyl-PEG4-(D-Tyr)-Hyp-Asn-Thr-Phe-(D-2Fua)-Leu-Arg(Me)-Trp-NH2] ({Lauroyl-PEG4}-[dY][Hyp]NTF[dAla(2-furyl)]L[Arg(Me)]W-NH2) | 0.075 nM | 0.075 nM |  |
| C=CC[C@H](NC(=O)[C@H](Cc1ccccc1)NC(=O)[C@@H](NC(=O)[C@H](CC(N)=O)NC(=O)[C@@H]1C[C@@H](O)CN1C(=O)[C@@H](Cc1ccc(O)cc1)NC(C)=O)[C@@H](C)O)C(=O)N[C@@H](CC(C)C)C(=O)N[C@@H](CCCNC(=N)NC)C(=O)N[C@@H](Cc1c[nH]c2ccccc12)C(N)=O [YA-350, Ac-(D-Tyr)-Hyp-Asn-Thr-Phe-Alg-Leu-Arg(Me)-Trp-NH2] (Ac-[dY][Hyp]NTF[AllylGly]L[Arg(Me)]W-NH2) | 0.17 nM | 0.17 nM |  |
| CNC(=N)NCCC[C@H](NC(=O)[C@H](CC(C)C)NC(=O)NNC(=O)[C@H](Cc1ccccc1)NC(=O)[C@@H](NC(=O)[C@H](CC(N)=O)NC(=O)C1(NC(=O)[C@@H](Cc2ccc(O)cc2)NC(C)=O)CCCCC1)[C@@H](C)O)C(=O)N[C@@H](Cc1c[nH]c2ccccc12)C(N)=O [YA-381, Ac-(D-Tyr)-A6c-Asn-Thr-Phe-azaGly-Leu-Arg(Me)-Trp-NH2] (Ac-[dY][Ac6c]NTF[azaGly]L[Arg(Me)]W-NH2) | 0.052 nM | 0.052 nM |  |
| CNC(=N)NCCC[C@H](NC(=O)[C@H](CC(C)C)NC(=O)NNC(=O)[C@H](Cc1ccccc1)NC(=O)[C@@H](NC(=O)[C@H](CC(N)=O)NC(=O)[C@@H]1CCN1C(=O)[C@@H](Cc1ccc(O)cc1)NC(C)=O)[C@@H](C)O)C(=O)N[C@@H](Cc1c[nH]c2ccccc12)C(N)=O [YA-382, Ac-(D-Tyr)-Aze-Asn-Thr-Phe-azaGly-Leu-Arg(Me)-Trp-NH2] (Ac-[dY][Aze]NTF[azaGly]L[Arg(Me)]W-NH2) | 0.175 nM | 0.175 nM |  |
| CNC(=N)NCCC[C@H](NC(=O)[C@H](CC(C)C)NC(=O)NNC(=O)[C@H](Cc1ccccc1)NC(=O)[C@@H](NC(=O)[C@H](CC(N)=O)NC(=O)C1(NC(=O)[C@@H](Cc2ccc(O)cc2)NC(C)=O)CCC1)[C@@H](C)O)C(=O)N[C@@H](Cc1c[nH]c2ccccc12)C(N)=O [YA-384, Ac-(D-Tyr)-ACBC-Asn-Thr-Phe-azaGly-Leu-Arg(Me)-Trp-NH2] (Ac-[dY][Ac4c]NTF[azaGly]L[Arg(Me)]W-NH2) | 0.338 nM | 0.338 nM |  |
| CNC(=N)NCCC[C@H](NC(=O)[C@H](CC(C)C)NC(=O)NNC(=O)[C@H](Cc1ccccc1)NC(=O)[C@@H](NC(=O)[C@H](CC(N)=O)NC(=O)[C@@H]1C[C@@H](O)CN1C(=O)[C@@H](Cc1ccc(O)cc1)NC(C)=O)C(C)(C)O)C(=O)N[C@@H](Cc1c[nH]c2ccccc12)C(N)=O [YA-403, Ac-(D-Tyr)-Hyp-Asn-beta,beta-diMe-L-serine-Phe-azaGly-Leu-Leu-Arg(Me)-Trp-NH2] (Ac-[dY][Hyp]N[Val(3-OH)]F[azaGly]L[Arg(Me)]W-NH2) | 0.272 nM | 0.272 nM |  |
